Experimental data reported in the supplement of paper PMC8948288.
The sequences are guide strands of siRNAs; only the seed at positions 2 to 7 varies.

Columns and labels:
H4 = assay: cell viability relative to siNT1 (ATP content); H4 human neuroglioma and GL261 mouse glioma; higher = less toxic; details: siRNA concentration 10 nM; 96 h; human
GL261 = assay: as above; details: siRNA concentration 25 nM; 96 h; mouse
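Note: cells reverse transfected with siRNA duplexes via lipid reagent, ATP read by luminescence, triplicate wells, values scaled to mean viability with non-targeting control siNT1.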

Sequence | cell viability (H4) | cell viability (GL261)
UGCGUAGACAUGUAAACCA | 94.6% | 52.8%
UGCGUAUACAUGUAAACCA | 99.8% | 51.8%
UGCGUCAACAUGUAAACCA | 76.3% | 36.8%
UGCGUCCACAUGUAAACCA | 41.9% | 37.3%
UGCGUCGACAUGUAAACCA | 89.3% | 30.6%
UGCGUCUACAUGUAAACCA | 57.7% | 43.6%
UGCGUGAACAUGUAAACCA | 77.1% | 49.8%
UGCGUGCACAUGUAAACCA | 69.8% | 22.7%
UGCGUGGACAUGUAAACCA | 84.5% | 36.8%
UGCGUGUACAUGUAAACCA | 51.4% | 41.7%
UGCGUUAACAUGUAAACCA | 73.4% | 49.6%
UGCGUUCACAUGUAAACCA | 50.5% | 36.6%
UGCGUUGACAUGUAAACCA | 76.1% | 45.9%
UGCGUUUACAUGUAAACCA | 108% | 25%
UGCUAAAACAUGUAAACCA | 103% | 56.7%
UGCUAACACAUGUAAACCA | 2.58% | 9.54%
UGCUAAGACAUGUAAACCA | 88% | 49.3%
UGCUAAUACAUGUAAACCA | 31.8% | 26.7%
UGCUACAACAUGUAAACCA | 92.4% | 42.1%
UGCUACCACAUGUAAACCA | 8.55% | 30.7%
UGCUACGACAUGUAAACCA | 74.4% | 60.3%
UGCUACUACAUGUAAACCA | 10.3% | 28.3%
UGCUAGAACAUGUAAACCA | 82.5% | 59.5%
UGCUAGCACAUGUAAACCA | 8.44% | 19.3%

Sequence | cell viability (H4) | cell viability (GL261)
UGCUAGGACAUGUAAACCA | 40% | 62.9%
UGCUAGUACAUGUAAACCA | 44% | 33.3%
UGCUAUAACAUGUAAACCA | 75.5% | 44.1%
UGCUAUCACAUGUAAACCA | 56.8% | 21.1%
UGCUAUGACAUGUAAACCA | 77.2% | 62.6%
UGCUAUUACAUGUAAACCA | 64.9% | 47.6%
UGCUCAAACAUGUAAACCA | 108% | 70.4%
UGCUCACACAUGUAAACCA | 57.9% | 51.8%
UGCUCAGACAUGUAAACCA | 62.3% | 51.2%
UGCUCAUACAUGUAAACCA | 79.4% | 47.7%
UGCUCCAACAUGUAAACCA | 34.9% | 56.9%
UGCUCCCACAUGUAAACCA | 31.3% | 12.4%
UGCUCCGACAUGUAAACCA | 52% | 32.2%
UGCUCCUACAUGUAAACCA | 22.6% | 36.6%
UGCUCGAACAUGUAAACCA | 94.6% | 54.8%
UGCUCGCACAUGUAAACCA | 46.4% | 42.5%
UGCUCGGACAUGUAAACCA | 68.1% | 47.3%
UGCUCGUACAUGUAAACCA | 57.9% | 37.1%
UGCUCUAACAUGUAAACCA | 93.3% | 57.8%
UGCUCUCACAUGUAAACCA | 64.7% | 14%
UGCUCUGACAUGUAAACCA | 44.6% | 27.7%
UGCUCUUACAUGUAAACCA | 82.1% | 49.1%
UGCUGAAACAUGUAAACCA | 77.3% | 33.8%
